Source: the supplement of paper PMC3334620
Over roughly 33,000 sequences, “E-score (-0.5 to 0.5)” has its median near -0.032; the highest 2% begin near 0.36. Some of the results follow.

molecular target: T1, Sko1 (UniProt Q02100); test: PBM E-score (8-mer binding enrichment) (E-score (-0.5 to 0.5)); higher = stronger / more preferred TF binding; most listed sequences are background and not binding sites; details: protein concentration: 200 nM; construct: GST-full length
T1 sequence: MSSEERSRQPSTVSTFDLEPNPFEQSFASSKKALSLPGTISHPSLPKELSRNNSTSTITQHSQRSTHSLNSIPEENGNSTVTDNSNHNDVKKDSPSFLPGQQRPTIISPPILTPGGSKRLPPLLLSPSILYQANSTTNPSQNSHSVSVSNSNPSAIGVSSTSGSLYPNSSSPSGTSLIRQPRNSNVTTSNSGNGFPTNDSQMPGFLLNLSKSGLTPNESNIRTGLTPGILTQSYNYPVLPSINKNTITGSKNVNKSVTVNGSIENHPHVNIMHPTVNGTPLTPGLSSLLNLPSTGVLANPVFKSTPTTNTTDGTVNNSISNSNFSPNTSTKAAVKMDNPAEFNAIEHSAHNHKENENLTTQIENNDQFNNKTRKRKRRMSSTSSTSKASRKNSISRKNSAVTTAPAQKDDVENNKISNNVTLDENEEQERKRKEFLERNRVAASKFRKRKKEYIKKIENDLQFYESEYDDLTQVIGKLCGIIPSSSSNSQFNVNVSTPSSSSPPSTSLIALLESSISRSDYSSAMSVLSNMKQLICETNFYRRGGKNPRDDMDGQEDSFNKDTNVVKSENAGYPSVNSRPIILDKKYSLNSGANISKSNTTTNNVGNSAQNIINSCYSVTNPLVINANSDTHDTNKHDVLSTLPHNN
Summary of the method: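 Bound GST-tagged yeast transcription factors, applied at about 100-200 nM to double-stranded universal all-10-mer Agilent arrays, were detected with fluorescent anti-GST. Scans were normalised with masliner. A modified Wilcoxon-Mann-Whitney statistic, the E-score, was assigned to each ungapped eight-base word pooled with its reverse complement by the Universal PBM Analysis Suite.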

First: CGCACAAC
Second: ATCTCCGA
The “PBM E-score” value of the first is higher: 0.0655 for the first, -0.0214 for the second.

First: CACCTAGC
Second: GTGATATA
The “PBM E-score” value of the first is lower: -0.173 for the first, 0.0787 for the second.

Going from ACTGAGTC to ATGAAGCC, the “PBM E-score” value falls from -0.129 to -0.164.

Compared with AGGAATTG, GGCCGCGA is lower in “PBM E-score” value: 0.0885 for the first, -0.122 for the second.

Going from CCGAGTAG to ATCCCGGG, the “PBM E-score” value falls from -0.225 to -0.241.

Going from CAGCTGAA to AGTACCCA, the “PBM E-score” value falls from -0.0103 to -0.0715.

Going from TCCTTAAA to CTGCTCCC, the “PBM E-score” value falls from 0.0765 to -0.166.

First: AAAAGCTA
Second: ATAAAGTA
The “PBM E-score” value of the first is lower: 0.141 for the first, 0.149 for the second.

First: CACCCTCA
Second: ACGCCCGG
The “PBM E-score” value of the first is lower: -0.264 for the first, -0.174 for the second.

Going from GGGTTTTA to AAGTCTTG, the “PBM E-score” value rises from -0.163 to -0.133.

Compared with CGGGGCTA, CTTTACTC is higher in “PBM E-score” value: -0.13 for the first, 0.266 for the second.

Going from AGAGGAAG to CTCCAAGC, the “PBM E-score” value rises from -0.228 to -0.181.

Compared with GGGCGCGA, CATACATG is higher in “PBM E-score” value: -0.192 for the first, 0.206 for the second.

Going from ATGTTACG to ACTCGCAA, the “PBM E-score” value falls from 0.354 to 0.145.

First: CAGCCTCC
Second: CCCGCGGC
The “PBM E-score” value of the first is lower: -0.266 for the first, -0.0957 for the second.

First: CCCTCAGC
Second: AAATCACG
The “PBM E-score” value of the first is lower: -0.292 for the first, 0.31 for the second.

First: AGCCCCGG
Second: GGCCTCAA
The “PBM E-score” value of the first is lower: -0.388 for the first, -0.154 for the second.

First: CGTGAGAC
Second: GATCAACA
The “PBM E-score” value of the first is lower: 0.068 for the first, 0.156 for the second.

First: AAACCTGG
Second: CACGAGCA
The “PBM E-score” value of the first is lower: -0.17 for the first, -0.128 for the second.

First: ATCCGCGC
Second: TCCGCAGA
The “PBM E-score” value of the first is higher: -0.148 for the first, -0.234 for the second.

Compared with AATCTCGG, GTAAGACA is higher in “PBM E-score” value: -0.0407 for the first, 0.247 for the second.

Compared with TATTTAAA, AGTTCCAA is lower in “PBM E-score” value: 0.171 for the first, -0.0785 for the second.

Going from AATTGCAC to CGTACTGC, the “PBM E-score” value rises from -0.012 to 0.128.

Compared with GGGACCGA, GGTATTAC is higher in “PBM E-score” value: -0.248 for the first, 0.204 for the second.

Going from AAACAAGG to AATACCCA, the “PBM E-score” value falls from -0.131 to -0.178.

Compared with ATCCATTC, AAAGCGAA is lower in “PBM E-score” value: 0.124 for the first, -0.0627 for the second.

Going from CATTGGGG to CAGGGTTC, the “PBM E-score” value falls from -0.136 to -0.213.

First: AGTCTAGG
Second: AGGGGCAA
The “PBM E-score” value of the first is higher: -0.16 for the first, -0.206 for the second.

Going from AAGTGATG to AGTGTTGA, the “PBM E-score” value falls from 0.184 to 0.0585.

Going from GCACCGAA to AATTCGAG, the “PBM E-score” value falls from -0.0742 to -0.122.

First: ATCCTTGG
Second: AGAAAAAA
The “PBM E-score” value of the first is lower: -0.0708 for the first, 0.15 for the second.

First: CCATTTAA
Second: CACTCAGC
The “PBM E-score” value of the first is higher: 0.191 for the first, -0.0479 for the second.

Going from AACTCGTC to ACTTCTCG, the “PBM E-score” value falls from 0.194 to 0.0277.

Going from AAGACTGT to GGATTCGA, the “PBM E-score” value falls from -0.142 to -0.167.

Going from AAGTTGAG to CAGGTCGA, the “PBM E-score” value falls from 0.0441 to -0.152.

Compared with ACGAAACC, CGCGATGC is lower in “PBM E-score” value: 0.288 for the first, -0.196 for the second.

Going from CATATCGG to ACAGGTGA, the “PBM E-score” value rises from -0.166 to -0.0861.

Going from AGGGTCCG to AGTTCCCA, the “PBM E-score” value rises from -0.311 to -0.0417.

Compared with CTTCTCCA, CAAATATA is higher in “PBM E-score” value: -0.271 for the first, 0.166 for the second.

Going from CAGGACGC to TGTGTCAA, the “PBM E-score” value rises from 0.0652 to 0.0936.

Going from CAGGGGGC to AGCGGTAG, the “PBM E-score” value rises from -0.381 to -0.173.

Going from GCCCGCGA to AAAATCGG, the “PBM E-score” value rises from -0.222 to -0.0745.

ACCTGTAT and GTCCTGGA are the same in “PBM E-score” value: -0.105 for the first, -0.105 for the second.

Going from CCGCGTTC to GACGATGA, the “PBM E-score” value rises from -0.0912 to 0.199.

First: GACGTTTA
Second: CTGTCTAC
The “PBM E-score” value of the first is higher: 0.386 for the first, 0.175 for the second.

First: GAAAAATC
Second: ACTGGCCG
The “PBM E-score” value of the first is higher: -0.0547 for the first, -0.336 for the second.

Compared with AGGATGTA, CGTAGAAC is lower in “PBM E-score” value: 0.0495 for the first, -0.0169 for the second.

First: ATAGAAGC
Second: ACAATCTC
The “PBM E-score” value of the first is higher: 0.0681 for the first, 0.00919 for the second.

First: AACTCACC
Second: TAAGCAAA
The “PBM E-score” value of the first is lower: -0.0504 for the first, 0.168 for the second.

Compared with CAGTACCG, GTTTGAGA is higher in “PBM E-score” value: -0.18 for the first, -0.0431 for the second.

Compared with GCAACGGA, GAGCAGCC is lower in “PBM E-score” value: 0.0479 for the first, -0.199 for the second.

First: GTATGTCA
Second: AGCCGTAA
The “PBM E-score” value of the first is higher: 0.398 for the first, 0.134 for the second.

Going from CCTGCTAA to GCGCACCA, the “PBM E-score” value rises from -0.252 to 0.0867.

Going from TCTAAACA to ACAGCCAG, the “PBM E-score” value falls from 0.0278 to -0.0717.

First: ATTCATCA
Second: ACTCTTCC
The “PBM E-score” value of the first is higher: 0.278 for the first, -0.0697 for the second.

Going from AACACTGG to CGATGGAA, the “PBM E-score” value rises from -0.0525 to 0.106.

First: ACGCGGCC
Second: CGGAAGGC
The “PBM E-score” value of the first is higher: -0.2 for the first, -0.266 for the second.

Compared with ATAAGAGC, GAAGACCA is lower in “PBM E-score” value: -0.0368 for the first, -0.193 for the second.

Going from GAGTAGAA to AGGTAGTA, the “PBM E-score” value falls from 0.03 to -0.0365.

Going from ACGCAGCG to CAGCCCGA, the “PBM E-score” value falls from 0.211 to -0.19.

Going from ATGCGACG to AGTCATTC, the “PBM E-score” value falls from 0.186 to 0.135.

Going from AGGAACAC to CTTACGAA, the “PBM E-score” value rises from 0.0921 to 0.275.

Compared with GAGGGCAA, TACTGGCA is higher in “PBM E-score” value: -0.147 for the first, -0.063 for the second.

Going from AACCTACA to CACCTAGA, the “PBM E-score” value falls from 0.0865 to -0.0625.

First: TACTCGGA
Second: AAGAGGAT
The “PBM E-score” value of the first is higher: 0.0485 for the first, -0.176 for the second.

First: ACAAGATC
Second: CTATGCAG
The “PBM E-score” value of the first is lower: -0.106 for the first, -0.0536 for the second.

Compared with AAAATTGT, GACGTGCC is higher in “PBM E-score” value: 0.112 for the first, 0.266 for the second.

First: TCCCTGCA
Second: ATTAACGG
The “PBM E-score” value of the first is lower: -0.151 for the first, -0.118 for the second.

Compared with GTTGAGAA, AGGGGGTC is lower in “PBM E-score” value: -0.0386 for the first, -0.404 for the second.

First: ATGGCCTA
Second: GACCAATC
The “PBM E-score” value of the first is lower: -0.0612 for the first, -0.0473 for the second.

First: GTACTGCA
Second: ACTGCTCT
The “PBM E-score” value of the first is lower: -0.169 for the first, -0.0895 for the second.

Going from GTGTCAGA to CCCGGGAG, the “PBM E-score” value falls from -0.06 to -0.232.

First: AATAGTGC
Second: CATAAGTC
The “PBM E-score” value of the first is lower: -0.0797 for the first, 0.034 for the second.

Going from CTACATCC to CAGTACAC, the “PBM E-score” value rises from -0.0667 to 0.0502.

Compared with CCCCAACC, GGACGTCC is lower in “PBM E-score” value: -0.062 for the first, -0.151 for the second.

First: GAAATGCC
Second: AGAAAGAC
The “PBM E-score” value of the first is lower: -0.136 for the first, -0.0145 for the second.

First: CAGAACAG
Second: GATTTCGA
The “PBM E-score” value of the first is lower: -0.0484 for the first, 0.0339 for the second.

Going from AGCGGTGA to ACTAAGAG, the “PBM E-score” value falls from -0.0427 to -0.113.

Compared with AGTAATAA, CGCATGCA is lower in “PBM E-score” value: 0.232 for the first, 0.156 for the second.

Compared with AGGCCGTA, AGTCACGA is higher in “PBM E-score” value: -0.00353 for the first, 0.103 for the second.

First: CCGGAGGC
Second: CTCTCACA
The “PBM E-score” value of the first is lower: -0.309 for the first, -0.0188 for the second.

Going from CGTTACTA to CTGTGAGA, the “PBM E-score” value falls from 0.127 to -0.0611.

Compared with AAGCGCTC, GTGTGCCA is higher in “PBM E-score” value: -0.0872 for the first, 0.164 for the second.

Going from AAGTCAAT to ATTATCCG, the “PBM E-score” value rises from -0.00377 to 0.0708.

Going from ATTCCTAC to AAGACCGA, the “PBM E-score” value falls from 0.0535 to -0.0514.

First: AGCGCTAT
Second: GCAGTTCA
The “PBM E-score” value of the first is higher: 0.144 for the first, -0.0145 for the second.
